PMC4336329 (PLoS ONE, 2015)
Among all 310,000 compounds or so, about 14,000 (4.5%) showed an effect of 50% or more. Effects have a minus sign here. The list shows a part of the results.

Molecular target: human ether-à-go-go-related gene (hERG) potassium channel (human, UniProt Q12809)
Test: primary screen, population patch clamp on CHO cells stably expressing hERG
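Further: peak tail current of the secondary pulse compared with the same well before compound.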

human ether-à-go-go-related gene (hERG) potassium channel, sequence (Q12809 whole entry, looked up): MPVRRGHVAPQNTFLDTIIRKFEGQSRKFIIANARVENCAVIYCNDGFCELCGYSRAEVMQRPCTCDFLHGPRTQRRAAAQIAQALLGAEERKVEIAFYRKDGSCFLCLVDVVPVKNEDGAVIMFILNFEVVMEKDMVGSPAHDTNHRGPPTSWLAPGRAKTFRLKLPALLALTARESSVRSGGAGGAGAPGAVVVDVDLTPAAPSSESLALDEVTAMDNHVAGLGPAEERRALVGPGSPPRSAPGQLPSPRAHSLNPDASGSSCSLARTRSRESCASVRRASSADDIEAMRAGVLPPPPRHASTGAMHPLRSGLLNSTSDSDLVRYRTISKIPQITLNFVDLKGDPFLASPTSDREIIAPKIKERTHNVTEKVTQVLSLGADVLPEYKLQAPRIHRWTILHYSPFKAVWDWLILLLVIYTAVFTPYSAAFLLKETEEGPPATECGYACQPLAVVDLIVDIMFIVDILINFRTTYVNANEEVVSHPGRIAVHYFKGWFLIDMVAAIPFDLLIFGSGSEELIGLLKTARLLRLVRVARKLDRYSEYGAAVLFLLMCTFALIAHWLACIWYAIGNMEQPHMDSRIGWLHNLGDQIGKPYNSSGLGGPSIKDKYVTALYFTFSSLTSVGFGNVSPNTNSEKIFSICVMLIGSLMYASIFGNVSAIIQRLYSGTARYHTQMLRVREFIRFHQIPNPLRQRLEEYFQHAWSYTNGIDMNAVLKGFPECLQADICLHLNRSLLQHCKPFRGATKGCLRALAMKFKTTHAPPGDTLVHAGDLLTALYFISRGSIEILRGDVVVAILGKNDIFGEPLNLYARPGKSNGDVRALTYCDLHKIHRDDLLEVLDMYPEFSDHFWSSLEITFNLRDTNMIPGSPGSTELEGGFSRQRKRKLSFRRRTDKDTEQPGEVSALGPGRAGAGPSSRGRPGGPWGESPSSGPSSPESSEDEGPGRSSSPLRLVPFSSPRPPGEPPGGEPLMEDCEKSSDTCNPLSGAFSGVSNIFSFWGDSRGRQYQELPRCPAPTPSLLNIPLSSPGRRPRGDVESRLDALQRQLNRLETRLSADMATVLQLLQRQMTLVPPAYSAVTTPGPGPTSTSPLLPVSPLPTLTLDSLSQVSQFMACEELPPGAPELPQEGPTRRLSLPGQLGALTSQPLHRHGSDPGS

SMILES	hERG current change (%, negative = inhibition) at 10uM
[Br-].c1ccc(-c2cn(-c3ccccc3)c3[n+]2CCCS3)cc1	-3.51%
Cc1cc(N2CCN(c3ncccn3)CC2)nc2c(C)cccc12	11.9%
COCCCNC(=O)CS(=O)(=O)Cc1nc(-c2cccc(OC)c2)oc1C	7.73%
CC1=CCn2c(=O)c3ccccc3c(=O)n2C1	13.1%
Cc1cccc(-n2c(C)c(-c3ccccc3)[nH]c2=S)c1	4.01%
CCSc1nnc(-c2ccc(S(=O)(=O)N3CCCC3)cc2)n1C	8.57%
Cc1ccc(S(=O)(=O)Nc2cc(Cl)c(O)c3ncccc23)cc1	-23.4%
O=C(CSCc1ccccc1)N1CCN(S(=O)(=O)c2cccc(F)c2)CC1	9.83%
COC(=O)c1ccc(N2CCN(C)CC2)c(NC(=O)COc2ccc(C)cc2)c1	-20%
CCOC(=O)c1c(C)n(CC(COC(C)=O)OC(C)=O)c2ccc(OC(C)=O)cc12 (stereo not shown)	-33.3%
COc1ccc(/C=N/NC(=O)c2cccnc2)cc1CSc1ccccn1	-6.44%
Cc1[nH]c2ccc(OCc3ccccc3)cc2c1CCN1C(=O)OC(C)(C)C1(C)O (stereo not shown)	4.14%
COc1ccc(N2CCN(CC(=O)Nc3ccccc3C(=O)NCc3ccccc3)CC2)cc1	-55.9%
O=C(N/N=C/C1=Cc2ccccc2OC1)c1ccncc1	11.8%
N#Cc1c2n(c(=S)n(-c3ccccc3[N+](=O)[O-])c1=O)CCCCC2	-15%
CC(Sc1cccc[n+]1[O-])c1ccccc1 (stereo not shown)	17.2%
Cc1ccc(S(=O)(=O)NCc2ccc(/C=C(/C#N)C(=O)NCc3ccccc3)o2)cc1	-16.3%
COc1cccc(N2CCN(Cc3nc(N)nc(N4CCCc5ccccc54)n3)CC2)c1	-45%
CC[C@@H]1CC=C[C@H]2[C@H]1C(=O)N(Cc1ccccc1)[C@H]2c1ccoc1	-8.05%
COc1ccc(CNC(=O)Cn2c(=O)oc3cc(S(=O)(=O)N4CCCC4)ccc32)cc1	36.5%
O=C(NCC(c1cccnc1)N1CCN(c2ccccc2F)CC1)OCc1ccccc1 (stereo not shown)	-20.2%
Cc1ccc2c(=O)cc(C(=O)NCCc3ccc(S(N)(=O)=O)cc3)oc2c1C	25.8%
O=c1[nH]c2ccc(S(=O)(=O)NCCO)cc2[nH]1	15.1%
COC(=O)C(C)Oc1ccc(-c2nccc(-c3ccccn3)n2)cc1 (stereo not shown)	-0.312%
Oc1ccc(Nc2ccnc3cc(Cl)ccc23)cc1	-2.29%
CCOc1cccc(-c2cc(-c3n[nH]c(=S)n3CC)c3ccccc3n2)c1	13.1%
CCOc1ccc(CN(C)Cc2cc(=O)oc3cc(C)c(Cl)cc23)cc1	7.63%
CCCCCNC(=O)CCn1c(=O)oc2ccccc21	7.26%

SMILES	hERG current change (%, negative = inhibition) at 10uM
CCc1cc(=O)oc2cc(OC3CCCCC3=O)ccc12 (stereo not shown)	23.2%
Cc1c(OCC(=O)NC2CCN(Cc3ccccc3)CC2)ccc2c3c(c(=O)oc12)CCC3	-47.7%
CNc1nc2ccccc2n1/N=C/c1cccc(OC)c1OC	-10.3%
COc1ccccc1C(=O)NC(=O)COC(=O)CNC(=O)c1ccc(Cl)c([N+](=O)[O-])c1	-35.9%
O=C(CCC1CCCCC1)Nc1cccnc1	11.7%
O=C(O)c1ccc(S(=O)(=O)N2CCC3(CC2)CC(=O)c2ccccc2O3)cc1	11.5%
COc1ccc(NC(=O)NC2(C(=O)N3CCCC3)CCCCC2)cc1	22%
Cc1ccc(NC(=O)Nc2cccs2)cc1	-2.58%
Cn1cc(S(=O)(=O)NCCc2ccccc2)c(=O)n(C)c1=O	-13.8%
CCOC(=O)CSc1nnc(-c2ccc(OC)cc2OC)o1	-15.5%
CCOC(=O)N1CCN(C(=O)Cn2ncc3c2-c2ccccc2OC3)CC1	-3.57%
CS(=O)(=O)N1CCC(Oc2ccccc2C(=O)N2CCCCC2CO)CC1 (stereo not shown)	13%
CCSc1cc(C2C(C#N)=C(N)Oc3n[nH]c(C)c32)c(C)o1 (stereo not shown)	6.09%
CCN1CCN(c2ccc(NC(=O)c3ccco3)cc2Cl)CC1	-4.06%
CSCc1cc(N(C)c2ccccc2)nc(-c2ccccn2)n1	-7.8%
CSc1nc2ccc(NC(=O)C3=NN(c4ccccc4)C(=O)CC3)cc2s1	-15.5%
CC(=O)c1c(C)[nH]c(C(=O)OCc2cccc(Cl)c2)c1C	2.54%
COCCN1CCN(C(=O)c2cc(COc3cc(C)ccc3C)on2)CC1	1.06%
Cc1ccc(S(=O)(=O)NCCC(=O)OCC(=O)Nc2cccc(S(=O)(=O)NC3=NCCCCC3)c2)cc1	3.43%
O=C(NNC(=O)c1csc(-c2cnccc2C(F)(F)F)n1)c1ccc(C(F)(F)F)cc1	-6.75%
COc1cccc(N2C(=O)Nc3ccc(Br)cc3C2(O)C(=O)NCCCN(C)C)c1 (stereo not shown)	19.3%
O=C(NCCc1ccc(F)cc1)c1ccc2nccnc2c1	-23.4%
O=C(CN1C(=O)c2ccc([N+](=O)[O-])cc2C1=O)NCCC1=CCCCC1	3.82%
O=C(CN1C(=O)C2C3C=CC(C3)C2C1=O)Nc1nc2ccccc2[nH]1 (stereo not shown)	1.59%
CCN1CCN(CC(O)COCC2COc3ccccc3O2)CC1.Cl (stereo not shown)	-4.69%
C#CCOCCOCCOCCNc1nc(N2CCN(C(=O)Cn3cc(CCC[NH+]=C(N)N)nn3)CC2)nc(N2CCN(C(=O)[C@H]([C@@H](C)CC)n3cc(CCC(=O)O)nn3)CC2)n1.[Cl-]	5.56%
COc1cc(/C(C)=N/NC(=O)Cc2c(C)[nH][nH]c2=O)ccc1O	4.62%
